# From paper PMC6919601, “Identification of Plasmodium dipeptidyl aminopeptidase allosteric inhibitors by high throughput screening” (PLoS ONE, 2019)
# Screen size: about 110,000 compounds; about 230 (0.21%) showed an effect of 50% or more. The list shows a part of the results.
# Molecular target: DPAP1 (Plasmodium falciparum, UniProt Q8IIJ9)
# Assay: primary screen, percent inhibition; read by cleavage of a fluorogenic dipeptide substrate; higher = more effect of the substance
# Parameters: species or system P. falciparum D10 trophozoite lysates; single well
# 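Also: 30 min substrate incubation versus DMSO and 10 µM JCP410 controls.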
# DPAP1, sequence (Q8IIJ9 whole entry, looked up): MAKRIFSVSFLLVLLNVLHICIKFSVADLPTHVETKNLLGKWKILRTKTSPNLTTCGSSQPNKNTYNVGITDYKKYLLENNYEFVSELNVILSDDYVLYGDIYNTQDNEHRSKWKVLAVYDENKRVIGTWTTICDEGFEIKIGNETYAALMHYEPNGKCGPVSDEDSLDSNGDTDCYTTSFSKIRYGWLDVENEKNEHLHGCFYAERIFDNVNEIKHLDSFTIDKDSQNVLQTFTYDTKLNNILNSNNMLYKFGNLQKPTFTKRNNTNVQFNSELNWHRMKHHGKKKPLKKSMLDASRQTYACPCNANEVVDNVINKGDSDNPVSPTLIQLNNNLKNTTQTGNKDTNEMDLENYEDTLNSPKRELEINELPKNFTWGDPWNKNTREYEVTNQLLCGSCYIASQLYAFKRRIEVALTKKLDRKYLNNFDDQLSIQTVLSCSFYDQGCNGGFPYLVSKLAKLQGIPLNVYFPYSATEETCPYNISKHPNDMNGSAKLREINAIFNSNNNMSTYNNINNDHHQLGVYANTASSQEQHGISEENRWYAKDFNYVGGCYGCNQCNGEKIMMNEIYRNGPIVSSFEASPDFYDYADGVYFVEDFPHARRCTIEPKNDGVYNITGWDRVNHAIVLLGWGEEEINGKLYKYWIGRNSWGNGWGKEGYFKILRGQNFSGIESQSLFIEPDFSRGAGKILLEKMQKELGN
row,SMILES,% Inhibition @ 10 uM
1,Cc1nn(C)cc1CNC(=O)c1cnn2c(C(F)(F)F)cc(-c3ccccc3)nc12,5.31%
2,CCC(C)(C)C1CCc2c(sc(N)c2C#N)C1 (centres unmarked),14.2%
3,CC(C)(C)N(CCNS(=O)(=O)c1csc(C(N)=O)c1)Cc1ccco1,-6.47%
4,CCCCC(=O)Nc1nnc(S(=O)(=O)N(CC)Cc2ccc(OC)cc2)s1,3.72%
5,CCc1nn2c(=O)cc(COc3ccc(/C=C4/N=C(c5cccc(C)c5)OC4=O)cc3)nc2s1,-7.65%
6,CCOC(=O)c1sc(NC(=O)COc2ccc(Cl)cc2)c(C(=O)OCC)c1C,7.31%
7,COc1ccccc1C(=O)NC1(C(F)(F)F)C(=O)Nc2c1c(=O)[nH]c(=O)n2-c1ccc(C)cc1 (centres unmarked),4.39%
8,O=C(CN1CCN(c2ccccc2)CC1)Nc1cc(C(F)(F)F)ccc1Cl,-3.69%
9,CC(C)(C)C1CCC2(CC1)N=C(c1ccccc1)C(=O)N2 (centres unmarked),4.63%
10,O=C(NC1CCN(Cc2ccccc2)CC1)c1ccccc1F,0.177%
11,Cc1ccc(-n2ncc3c(NCCN(C)C)ncnc32)cc1C,4.61%
12,COc1ccc(OC)c(C2C(C#N)=C(N)N(c3nc[nH]n3)C3=C2C(=O)CC(C)(C)C3)c1 (centres unmarked),2.38%
13,CCOCCCNC(=O)c1ccc(CS(=O)(=O)Cc2cccc(C)c2)o1,-1.79%
14,N#CC1=C(N)OC2=C(C(=O)CC(c3ccccc3)C2)C1c1ccc(F)cc1F (centres unmarked),-4.94%
15,COc1ccc(Cl)cc1NC(=O)c1cnn2c1NC(c1ccco1)CC2C(F)(F)F (centres unmarked),9.33%
16,Oc1cc(CSc2nnnn2-c2ccccc2)nc2ncnn12,-8.55%
17,Cc1nc2c(c(C)nn2C(C)(C)C)c(C)c1CCC(=O)N1CCN(c2ccccn2)CC1,-4.24%
18,O=C(O)COc1ccc(NC(=O)COc2ccccc2Cl)cc1,-3.85%
19,O=C(NCCCO)C(=O)NCCc1ccc(Cl)cc1,-6.95%
20,CC1CCCC(NC(=O)C2CCCN(C(=O)c3cc4sccc4n3C)C2)C1C (centres unmarked),-9.48%
21,O=C(CCN1CCCCCC1)c1ccccc1,-0.0953%
22,CSC1=C(C#N)C(c2ccccc2C)CC(=O)N1 (centres unmarked),0.673%
23,COc1ccc(C2NC(C(=O)O)Cc3c2[nH]c2ccccc32)cc1O (centres unmarked),1.66%
24,CC1=C(C(=O)OCCc2ccccc2)C(c2ccccc2Cl)NC(=O)N1 (centres unmarked),-0.436%

row,SMILES,% Inhibition @ 10 uM
1,CCO/C(O)=C1/C(C)=NC2=C(C(=O)CC(C)(C)C2)C1c1ccc(SC)cc1 (centres unmarked),-3.09%
2,CCOc1ccc(-c2cc(NC(=O)c3nn(C)c4c3COc3ccccc3-4)on2)cc1OCC,-1.72%
3,CS(=O)(=O)C1=NSC2=NC(=O)/C(=C\c3ccc(OCc4ccc5c(c4)OCO5)cc3)C(=N)N21,5.06%
4,CCOC(=O)c1c(NC(=O)CNCc2ccccc2)sc2c1CCCC2,-3.92%
5,COc1ccc(/C=C2\C=C(c3ccc(Cl)cc3)OC2=O)c(C)c1,3.72%
6,CCCCn1c(-c2ccc(OC)c(OC)c2)nc2ccccc21,2.73%
7,COc1cccc(C2CC(=O)NC(SCC(N)=O)=C2C#N)c1 (centres unmarked),0.673%
8,C=CCNCc1nc2ccccc2c(=O)n1-c1ccc(OCC)cc1,1.94%
9,COc1ccc2nc3c(nc2c1)C(=O)c1ccccc1C3=O,-1.72%
10,O=C1CCC(=O)N1c1ccc(Oc2ccc(Cl)cc2Cl)cc1,-5.11%
11,O=C(c1cc2ccccc2oc1=O)N(Cc1ccccc1)C1CCS(=O)(=O)C1 (centres unmarked),-1.33%
12,COc1cc2c(cc1OC)C(C(=O)NCCCN1CCN(C)CC1)C1c3ccccc3CCN1C2=O (centres unmarked),-1.54%
13,COc1ccc(NC(=O)C2CC3CCC2C3)cc1OC (centres unmarked),0.219%
14,Cc1ccc(-c2noc(CCC(=O)NC3CCCc4ccccc43)n2)cc1 (centres unmarked),0.738%
15,COc1ccc(C)cc1N(CC(=O)Nc1ccc(NC(C)=O)cc1)S(=O)(=O)c1ccccc1,1.71%
16,CCN1CCC(N2CCN(C/C=C/c3ccccc3)CC2)CC1,3.19%
17,CCCCOc1ccc(S(=O)(=O)N2CCC(C(N)=O)CC2)cc1,5.03%
18,CCOc1ccc(N(CC(=O)N2CCC(C)CC2)S(=O)(=O)c2ccc(C)cc2)cc1,2.84%
19,COc1ccc(/N=C2\SC(C(=O)Nc3ccccc3OC)CC(=O)N2C)cc1 (centres unmarked),0.385%
20,COC(=O)c1ccc(CS(=O)(=O)c2ccccc2OC)o1,-0.256%
21,Cc1ccc(C)c(-n2c(-c3ccccc3)cc3c2CC(C)(C)CC3=O)c1,-5.62%
22,O=C(NC(Cc1ccccc1)c1ccc2c(c1)OCCCO2)c1cccs1 (centres unmarked),-1.28%
23,COc1cc(NC(=O)C23CC4CC(CC(C4)C2)C3)c(OC)cc1NC(C)=O,4.19%
24,CCOc1ccc(-c2nc(C#N)c(N3CCCCCC3)o2)cc1,-1.43%

row,SMILES,% Inhibition @ 10 uM
1,CC(=O)c1ccc(NC(=O)/C=C/c2ccc(Cl)cc2)cc1,-1.62%
2,Cc1ccc2nc3c(O)n(CC(=O)N4CCCC4)ncc-3c2c1,-1.97%
3,O=C1NC(c2ccccc2)=NC1(Nc1ncc(C(F)(F)F)cc1Cl)C(F)(F)F (centres unmarked),-4.04%
4,COc1cc2cc(=O)n(Cc3ccco3)c(C)c2cc1OC,6.66%
5,CCCC[C@H](NC(=O)C(Cc1c(F)cccc1F)NC(=O)c1ccc(-c2ccccc2Cl)cc1)C(=O)c1nnc(-c2cccnc2)o1 (some centres unmarked),2.87%
6,CCOC(=O)C1=C(C)N=c2s/c(=C/c3cnn(C)c3C)c(=O)n2C1c1ccc(OC)cc1OC (centres unmarked),3.81%
7,Cc1ccc(C2=NN(CC(=O)NCc3ccc(F)cc3)C(=O)CC2)cc1,6.86%
8,CN(C)CCN(C)Cc1ccc(F)c(F)c1,-2.54%
9,CCCOc1ccc(C2c3c(-c4cc(C)ccc4O)n[nH]c3C(=O)N2CCOC)cc1 (centres unmarked),0.558%
10,Cc1ccc(NC(=O)CCN2CCN(Cc3ccccc3)CC2)cc1Br,-1.95%
11,Cc1nc2ncnn2c(C)c1CCC(=O)N1CCN(Cc2ccccc2)CC1,2.93%
12,O=C(Cn1c2ccccc2c2cnnc(O)c21)NCc1ccccn1,-0.281%
13,N#Cc1ccc(NC(=O)c2ccc(Cl)cc2Cl)cc1,2.17%
14,CC(=O)c1ccc(NC(=O)c2ccncc2)cc1,-3.45%
15,CNC(=O)C1CCN(c2nc3c(C)cc(C)cc3s2)CC1,3.4%
16,Cc1ccccc1C(OCCN(C)C)C1CCCCC1 (centres unmarked),3.19%
17,Cc1nn(C)cc1CNC(=O)c1nn2c(C(F)(F)F)cc(-c3cccs3)nc2c1Br,17.1%
18,COC(=O)CNc1nc(Cl)nc(NC2CCCCC2)n1,-5.48%
19,CCOc1ccc(N/C=C2/C(=O)NC(=O)N(c3cccc(Cl)c3)C2=O)cc1,-3.46%
20,O=C(N/C(C(=O)N1CCOCC1)=C(\Sc1nc2ccccc2o1)c1ccccc1)c1ccccc1,-3.26%
21,Cc1ccc(NC(=O)C2CC3c4ccccc4C2c2ccccc23)c(C)c1 (centres unmarked),-0.0217%
22,O=C(NCc1ccncc1)C(O)(c1ccccc1)c1ccccc1,2.8%
23,CC(=O)C(C(C)=O)=C(N)NC(=O)c1ccccc1,-4.24%
24,O=C(O)CCN1C(=O)C2CC=C(Cl)CC2C1=O (centres unmarked),1.05%

row,SMILES,% Inhibition @ 10 uM
1,Cc1ccc(Cl)cc1NC(=O)c1c(Br)c(C)nn1C,-2.8%
2,COc1cccc2c1cc1c(=O)n(CC(=O)N3CCN(c4ccccn4)CC3)nc(C)n12,-3.47%
3,O=C1N/C(=C/c2ccc(N3CCCCC3)cc2F)C(=O)N1Cc1ccccc1,-7.9%
4,CCOC(=O)N1CCc2c(sc3c2c(=O)n(Cc2ccccc2)c(=O)n3Cc2ccccc2C)C1,-1.21%
5,Cc1cccc(CCNC(=O)CCc2nnc3n(CCc4ccccc4)c(=O)c4ccccc4n23)c1,2.6%
6,NC(=O)c1cc(NC(=O)c2cc3ccccc3cc2O)cc(C(N)=O)c1,0.774%
7,Cc1ccc(S(=O)(=O)c2nc(S(C)(=O)=O)sc2N2CCCCC2C)cc1 (centres unmarked),2.76%
8,COc1ccc(/C=C\c2onc(C)c2S(=O)(=O)N2CCC(C(=O)Nc3cccc(C)n3)CC2)cc1,-4.96%
9,Nc1nc(OCC(F)(F)C(F)F)cc(-c2ccccc2)n1,3.95%
10,COc1ccc(C(=O)N(CCCN(C)C)c2nc3ccc(F)cc3s2)cc1,-1.07%
11,CC(=O)N1N=C2CCCCC2C1C(C)C (centres unmarked),-1.56%
12,O=C(NCC1CCN(Cc2ccc(Cl)cc2)CC1)c1cc2ccc3cccnc3c2[nH]1,-0.0157%
13,COc1ccc(CCNC(=O)c2ccc(CS(=O)c3ccc(Br)cc3)o2)cc1OC (centres unmarked),-9.16%
14,O=C(COc1ccc(F)cc1)Nc1c(C(=O)N2CCC(N3CCCCC3)CC2)oc2ccccc12,0.0065%
15,Nc1ccc(C(=O)CC2(O)C(=O)Nc3c(Cl)cc(Cl)cc32)cc1 (centres unmarked),-2.85%
16,Cn1c(=O)c2sccc2n2c(CCCC(=O)NCCOc3cccc(C(F)(F)F)c3)nnc12,0.331%
17,O=S(=O)(c1ccccc1)N1CCC(Cc2ccccc2)CC1,-6.44%
18,C/N=C1\S/C(=C\c2ccc(OC)cc2)C(=O)N1C,3.32%
19,CCCc1[nH]nc2c1C(c1cc(Cl)cc(Cl)c1O)C(C#N)=C(N)O2 (centres unmarked),2.3%
20,CCOC(=O)c1cn(CC)c2cc(N3CCN(C)CC3)c(F)cc2c1=O,-4.32%
21,CCc1ccc(-n2nc(C)c3c(C)cc(=O)n(CC(=O)NC(C)c4ccccc4)c32)cc1 (centres unmarked),4.15%
22,CC1=CN2C(=N)/C(=C/c3cc(C)n(-c4ccc(C)c(Cl)c4)c3C)C(=O)N=C2S1,3.87%
23,N#CC1=C(N)OC2=C(C(=O)CC(c3ccccc3)C2)C1c1ccc(Br)o1 (centres unmarked),0.605%
